Test results reported in publication PMC2686265, “ATP and MO25α Regulate the Conformational State of the STRADα Pseudokinase and Activation of the LKB1 Tumour Suppressor” (PLoS Biology, 2009).
Numbering of substitutions follows the chain as printed. These are yes or no findings as the source states them, for the method shown. For some assays here: In cells and extracts the contact can be indirect. Some results given as binding are weak or reduced against the parent protein; the word gives no strength. For some assays here: Sequences can lack the tags named with a protein. Blank lines part the entries; values can stand above or below the binder they belong to.

Tests used:
[1] = biological target: T1, LKB1/STRADα complex (GST-LKB1 with Flag-STRADα) (human) (UniProt Q15831+Q7RTN6); experiment: pull-down; GST-LKB1, Flag-STRADα and MO25α (Myc-tagged or untagged) co-transfected in 293 cells, GST-LKB1 purified on glutathione-Sepharose, immunoblot
T1 sequence 1: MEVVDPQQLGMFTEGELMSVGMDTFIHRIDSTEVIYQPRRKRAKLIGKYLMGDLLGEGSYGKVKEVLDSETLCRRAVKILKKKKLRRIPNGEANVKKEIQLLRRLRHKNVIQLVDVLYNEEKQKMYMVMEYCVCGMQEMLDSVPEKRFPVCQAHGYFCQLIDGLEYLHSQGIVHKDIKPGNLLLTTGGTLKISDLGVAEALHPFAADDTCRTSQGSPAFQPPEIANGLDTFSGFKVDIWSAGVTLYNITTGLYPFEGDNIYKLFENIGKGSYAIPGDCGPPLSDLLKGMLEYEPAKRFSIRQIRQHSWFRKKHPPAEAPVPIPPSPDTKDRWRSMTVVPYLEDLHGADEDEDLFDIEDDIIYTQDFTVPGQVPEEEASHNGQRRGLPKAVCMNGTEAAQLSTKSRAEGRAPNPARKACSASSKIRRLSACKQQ
T1 sequence 2: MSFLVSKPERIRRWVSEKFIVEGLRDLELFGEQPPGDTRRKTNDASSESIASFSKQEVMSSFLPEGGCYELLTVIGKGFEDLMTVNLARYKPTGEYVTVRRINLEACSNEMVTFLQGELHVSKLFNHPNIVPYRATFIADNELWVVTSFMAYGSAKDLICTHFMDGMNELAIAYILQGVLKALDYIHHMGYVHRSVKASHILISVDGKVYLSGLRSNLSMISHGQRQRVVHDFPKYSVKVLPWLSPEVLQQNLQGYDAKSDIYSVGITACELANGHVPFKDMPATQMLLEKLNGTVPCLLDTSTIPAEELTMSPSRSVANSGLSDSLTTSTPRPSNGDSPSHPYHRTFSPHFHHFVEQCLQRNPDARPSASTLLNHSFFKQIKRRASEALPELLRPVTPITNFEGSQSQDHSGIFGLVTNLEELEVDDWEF

[2] = biological target: T2, GST-STRADα (wild type) (human) (UniProt Q7RTN6); experiment: pull-down; GST-STRADα and MO25α (Myc-tagged or untagged) co-expressed in 293 cells, lysed 36 h post-transfection, GST-STRADα purified on glutathione-Sepharose, immunoblot
T2 sequence: T1 sequence 2

[3] = biological target: T3, MO25α (R227A/M260A) (residues 1–341) (human) (UniProt Q9Y376); experiment: SPR; BIAcore T100, MO25α amine-coupled to CM5 chip, STRADα injected (5 µM to 0.3 nM), 25°C, 50 mM Tris pH 7.8, 50 mM NaCl, 270 mM sucrose, 1 mM DTT, 0.005% P20, 0.1 mg/ml BSA; without ATP; Kd = kd/ka; both purified
T3 sequence: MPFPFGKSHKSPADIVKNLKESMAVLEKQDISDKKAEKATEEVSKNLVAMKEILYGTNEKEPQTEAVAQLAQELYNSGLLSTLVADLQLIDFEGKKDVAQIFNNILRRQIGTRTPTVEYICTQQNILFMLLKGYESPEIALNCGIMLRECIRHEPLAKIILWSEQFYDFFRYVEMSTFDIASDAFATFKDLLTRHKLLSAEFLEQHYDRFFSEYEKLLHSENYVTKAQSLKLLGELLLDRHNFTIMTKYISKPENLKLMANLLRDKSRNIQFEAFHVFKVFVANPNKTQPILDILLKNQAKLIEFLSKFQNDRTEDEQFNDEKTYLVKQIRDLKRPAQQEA

[4] = biological target: T4, MO25α (R227A) (residues 1–341) (human, UniProt Q9Y376 1-341, R227A); experiment: as above
T4 sequence: T3 sequence with A260M

[5] = biological target: T3, MO25α (R227A/M260A) (residues 1–341) (human); experiment: SPR; as a2 but with 100 µM ATP in the running buffer; two-site model where appropriate; both purified
[6] = biological target: T5, GST-LKB1 (wild type) (human) (UniProt Q15831); experiment: pull-down; GST-LKB1, Flag-STRADα and MO25α (Myc-tagged or untagged) co-transfected in 293 cells, GST-LKB1 purified on glutathione-Sepharose, immunoblot
T5 sequence: T1 sequence 1

[7] = biological target: T5, GST-LKB1 (wild type) (human); experiment: pull-down; GST-LKB1 and Flag-STRADα expressed in 293 cells in the absence of MO25α, GST-LKB1 purified on glutathione-Sepharose, immunoblot
[8] = biological target: T6, MO25α (WT) (residues 1–341) (human, UniProt Q9Y376 1-341); experiment: SEC; gel filtration of separately expressed MO25α beside the His-STRADα/MO25α complex, with molecular mass standards; both purified
T6 chain: T3 sequence with A227R, A260M

B3: Flag-STRADα (wild type, full-length) (protein, UniProt Q7RTN6 1-431)
chain: T1 sequence 2
binding [6]: binds
binding [7]: binds

B4: Myc-MO25α (wild type) (protein, UniProt Q9Y376 1-341)
chain: T3 sequence with A227R, A260M
binding [6]: binds
binding [1]: binds
binding [2]: binds

B6: MO25α (WT) (residues 1–341) (natural protein, human, UniProt Q9Y376 1-341, looked up)
chain: T3 sequence with A227R, A260M
notes: MO25α, human, residues 1–341 (full length); also called MO25α (WT, wild type); wild-type MO25α; source: E. coli, expressed individually as GST fusion, purified on glutathione-Sepharose, eluted with PreScission protease
binding [8]: no binding

Second part, led by results:

binding [1]: binds
binding [2]: binds
B1: untagged MO25α(ΔPFPF), expressed in 293 cells (protein, UniProt Q9Y376)
chain: MGKSHKSPADIVKNLKESMAVLEKQDISDKKAEKATEEVSKNLVAMKEILYGTNEKEPQTEAVAQLAQELYNSGLLSTLVADLQLIDFEGKKDVAQIFNNILRRQIGTRTPTVEYICTQQNILFMLLKGYESPEIALNCGIMLRECIRHEPLAKIILWSEQFYDFFRYVEMSTFDIASDAFATFKDLLTRHKLLSAEFLEQHYDRFFSEYEKLLHSENYVTKRQSLKLLGELLLDRHNFTIMTKYISKPENLKLMMNLLRDKSRNIQFEAFHVFKVFVANPNKTQPILDILLKNQAKLIEFLSKFQNDRTEDEQFNDEKTYLVKQIRDLKRPAQQEA

binding [3]: no binding (tested: STRADα up to 5 µM)
binding [5]: no binding (tested: STRADα up to 5 µM)
B2: untagged STRADα (residues 59–431) (domain or fragment)
chain: MSSFLPEGGCYELLTVIGKGFEDLMTVNLARYKPTGEYVTVRRINLEACSNEMVTFLQGELHVSKLFNHPNIVPYRATFIADNELWVVTSFMAYGSAKDLICTHFMDGMNELAIAYILQGVLKALDYIHHMGYVHRSVKASHILISVDGKVYLSGLRSNLSMISHGQRQRVVHDFPKYSVKVLPWLSPEVLQQNLQGYDAKSDIYSVGITACELANGHVPFKDMPATQMLLEKLNGTVPCLLDTSTIPAEELTMSPSRSVANSGLSDSLTTSTPRPSNGDSPSHPYHRTFSPHFHHFVEQCLQRNPDARPSASTLLNHSFFKQIKRRASEALPELLRPVTPITNFEGSQSQDHSGIFGLVTNLEELEVDDWEF
binding [4]: no binding (condition: without ATP; STRADα up to 5 µM)

binding [1]: binds
binding [2]: binds
B5: untagged MO25α (wild type), expressed in 293 cells (protein, UniProt Q9Y376 1-341)
chain: T3 sequence with A227R, A260M

binding [6]: no binding
B7: PMSE-STRADα (residues 1–251), Flag-tagged (domain or fragment, UniProt Q7RTN6 1-251)
chain: MSFLVSKPERIRRWVSEKFIVEGLRDLELFGEQPPGDTRRKTNDASSESIASFSKQEVMSSFLPEGGCYELLTVIGKGFEDLMTVNLARYKPTGEYVTVRRINLEACSNEMVTFLQGELHVSKLFNHPNIVPYRATFIADNELWVVTSFMAYGSAKDLICTHFMDGMNELAIAYILQGVLKALDYIHHMGYVHRSVKASHILISVDGKVYLSGLRSNLSMISHGQRQRVVHDFPKYSVKVLPWLSPEVLQQ
